Measurements as given in PubChem BioAssay (NCI).
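In this assay, cells in 96-well plates receive the compound at five concentrations for 48 hours. Endpoints are linearly interpolated between the surrounding concentrations. Here, GI50 denotes the concentration required for 50% inhibition of growth. The concentration for full growth arrest is given as TGI.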

Test system: NCI-H322M lung
Assay: NCI-60 cell line screen, 48 h

| SMILES | GI50 | TGI |
| --- | --- | --- |
| O=C(NN1C(=O)/C(=C/C=C/c2ccc([N+](=O)[O-])o2)SC1=S)c1ccc(Cl)cc1 | 1.72 µM | 3.45 µM |
| C=C1CCC2C3(C)COC(c4cc(F)cc(F)c4)OC3CCC2(C)C1C/C=C1/C(=O)OCC1O (stereo unspecified) | 2.83 µM | 10.5 µM |
| O=C(OCCOCCO)N(c1cccc(Br)c1)c1nc(SCCN2CCOCC2)nc2c1cnn2CC(Cl)c1ccc(Br)cc1 (stereo unspecified) | 11.8 µM | > 100 µM |
